73 compounds from PubChem BioAssay AID488969 (Vanderbilt High Throughput Screening Facility, 2010) can be followed below.

Over roughly 110,000 compounds, “z-score” has its median near -0.1; the highest 2% begin near 2. The list shows a part of the results.

In this assay the target is Metabotropic glutamate receptor 8 (Rattus norvegicus) (UniProt P70579). Nature of the assay: mGluR8 Gi/Go-coupled signaling modulation – cell-based, rat, thallium flux, HTS, primary screen (AID 488969). Conditions: HEK293 rat mGluR8, GIRK (G protein-gated inwardly rectifying potassium channel) thallium flux, FluoZin2; at 10 µM; stronger effect = higher value; submaximal glutamate (EC20) added with thallium.
Chain of UniProt P70579 (P70579 whole entry, looked up): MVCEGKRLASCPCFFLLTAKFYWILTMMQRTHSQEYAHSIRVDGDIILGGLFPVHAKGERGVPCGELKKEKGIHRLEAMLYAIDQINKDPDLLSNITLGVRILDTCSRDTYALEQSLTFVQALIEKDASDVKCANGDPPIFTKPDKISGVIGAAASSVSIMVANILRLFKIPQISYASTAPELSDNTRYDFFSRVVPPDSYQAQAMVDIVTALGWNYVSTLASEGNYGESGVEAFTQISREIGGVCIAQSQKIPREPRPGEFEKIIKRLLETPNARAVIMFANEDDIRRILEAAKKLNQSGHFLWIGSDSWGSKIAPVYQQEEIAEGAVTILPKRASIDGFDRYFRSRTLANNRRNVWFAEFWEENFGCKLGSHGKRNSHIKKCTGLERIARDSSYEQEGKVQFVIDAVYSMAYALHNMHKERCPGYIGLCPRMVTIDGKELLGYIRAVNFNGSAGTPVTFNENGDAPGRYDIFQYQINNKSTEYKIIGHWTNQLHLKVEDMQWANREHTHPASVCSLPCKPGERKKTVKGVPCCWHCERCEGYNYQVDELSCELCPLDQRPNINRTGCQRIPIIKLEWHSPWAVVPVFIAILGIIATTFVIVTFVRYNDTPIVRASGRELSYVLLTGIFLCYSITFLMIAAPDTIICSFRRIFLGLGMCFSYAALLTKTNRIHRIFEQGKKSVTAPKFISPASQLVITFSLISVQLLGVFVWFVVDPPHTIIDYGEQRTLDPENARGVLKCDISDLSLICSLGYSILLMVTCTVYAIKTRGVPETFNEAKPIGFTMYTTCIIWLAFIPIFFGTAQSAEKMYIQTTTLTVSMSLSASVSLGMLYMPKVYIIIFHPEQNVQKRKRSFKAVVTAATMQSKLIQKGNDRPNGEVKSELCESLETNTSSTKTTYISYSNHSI
For `O=C(CC(c1ccccc1)c1ccccc1)NCCO`, the z-score was -1.11.
`COc1ccc(/C=C/C(=O)c2sc(-c3ccc(Cl)cc3)nc2C)cc1`: the z-score was -0.978.
In turn, `C=CCN1C(=O)C(CCCC)NC1=S` (stereo not drawn) came in with a z-score of -0.0406.
On to `Fc1ccc(-c2ccnc3nc(N4CCN(c5ccccc5)CC4)nn23)cc1`, for which the z-score was -0.597.
`CC(C)Cc1nc2oc3c(=O)[nH]cnc3c2c2c1CCC2`: the z-score amounted to 0.0516.
As for `C=CCNc1nc(N2CCOCC2)c(C#N)c2c1CN(C)CC2`, the figure is -0.148; as for `CC(C)C(=O)NCCn1ccc2ccccc21`, 0.586.
`COc1cc(C2C(C(=O)c3cccs3)=C(O)C(=O)N2c2cc(C)on2)ccc1O` (stereo not drawn): the z-score was -0.347.
As for `CCN(CC)C(=O)C1=C(C)Nc2nnnn2C1c1cccnc1` (stereo not drawn), the figure is -0.00299; as for `Cc1ccc(-n2c(O)c(/C=N/NC(=O)C3COc4ccccc4O3)c3ccccc3c2=O)cc1` (stereo not drawn), -0.326; as for `Cc1ccc(C(=O)Nc2cc(=O)n(C)c(=O)n2C)o1`, -0.559.
The compound `Fc1ccccc1CSc1nnc(-c2cccs2)o1` came in with a z-score of 0.949.
For `CC(=O)c1cc2c(C)c(C(=O)c3ccccc3)oc2cc1O`, the z-score is 0.335.
As for `Cc1cccc(NC(=O)Nc2ccc(C)cc2Br)c1`, the figure is 0.0899; as for `CCSC1=N/C(=C\c2ccc(OC)cc2)C(=O)N1`, -0.286.
`CCc1ccc(NC(=O)c2c(Cl)nc(C)c(Cl)c2C)cc1` displayed a z-score of 0.414.
As for `Cc1cccc(NC(=O)C2CC(=O)n3cnnc3S2)c1` (stereo not drawn), the figure is -0.956.
In the case of `CCc1ccc(OCC(=O)NNC(=O)Cc2cccs2)cc1`, the z-score was found to be 0.638.
For the compound `N#CC1=C(SCC(=O)Nc2cccc3cccnc23)NC(=O)C(C#N)C12CCCCC2` (stereo not drawn), the z-score is -2.36.
In turn, `NC(=O)NC(=O)CSc1cccc(C(F)(F)F)c1` displayed a z-score of -0.362.
As for `Cc1ccc(-c2cc(C(=O)NCC3CCCO3)no2)cc1` (stereo not drawn), the figure is -0.137; as for `CCN(CC)CCN1C(=O)c2ccccc2NC1c1ccc(F)cc1` (stereo not drawn), -0.365.
As for `N#CC1C(C#N)N2CCCN2C1c1ccc(Cl)cc1` (stereo not drawn), the figure is 0.412; as for `C/C(=N/NC(=O)CNC(=O)COc1ccccc1)c1ccco1`, 0.0764.
`Cn1cccc1Cc1nnc(SCC(=O)N2CCCC2)n1CCc1ccccc1` returned a z-score of 0.601.
In turn, `CC(=O)Oc1ccccc1C1OC(=O)c2ccccc2N1C(C)=O` (stereo not drawn) had a z-score of -0.00311.
Consider `Cc1cccc(NC(=S)NNC(=S)NCc2ccccc2)c1`, for which the z-score was -0.364.
Next, `COc1ccc(/C=N\NC(=O)C2=NNC(=O)C2C)cc1` (stereo not drawn): -0.0658; `Cc1c(Cc2c(Cl)cccc2Cl)c(=O)ccn1C(C)c1ccccc1` (stereo not drawn): -0.144.
`CN1CC2([N+](=O)[O-])CC=C(OCCO)C([N+](=O)[O-])(C1)C2` (stereo not drawn) showed a z-score of -0.317.
In the case of `CN1/C(=C/C(=O)c2cccs2)Sc2ccccc21`, the z-score was -0.204.
`CC(C)Cc1nc2n[nH]c(N)c2c2c1CCC2`: the z-score turned out to be 0.342.
Next, `CCOc1ccc(NS(=O)(=O)c2ccc3[nH]c(=O)oc3c2)cc1`: -0.219; `COC(=O)c1cc(NC(=O)c2c(Cl)cnn2C)cc(C(=O)OC)c1`: -0.191; `CS(=O)(=O)c1ccc2nc(NC3(C(F)(F)F)N=C4SCCN4C3=O)sc2c1` (stereo not drawn): 0.151.
As for `N/C(=N\OC(=O)CCC1CCCC1)c1cccc([N+](=O)[O-])c1`, the figure is -0.162.
Next, `COc1cc(C(=O)O/N=C(\N)c2ccc([N+](=O)[O-])cc2)cc(OC)c1OC`: -0.417; `O=C1CCCC2=C1C1(CCCCC1)N=C(Nc1nc3ccccc3s1)N2`: -0.0713; `O=C(O)c1cc2ccc3ccccc3c2[nH]1`: -0.72.
`COc1ccc(CNC(=O)c2c(N)n(CCCN3CCOCC3)c3nc4ccccc4nc23)cc1` displayed a z-score of -0.327.
As for `CCc1cc(=O)oc2cc(C)cc(OCc3nn[nH]n3)c12`, the figure is 0.133; as for `Clc1ccc(-c2ccc(SCc3ccccn3)nn2)cc1`, 0.107; as for `CC1CN(C(=S)SCC(=O)c2ccccc2)CC(C)O1` (stereo not drawn), -0.298.
For `O=C(O)c1ccccc1N(Cc1ccccc1)C(=O)CO/N=C/c1ccccc1`, the z-score is -0.232.
On to `Nc1nnnn1/N=C/c1ccccc1OCc1ccc(Cl)cc1Cl`, for which the z-score was -0.252.
The compound `N#Cc1c(-c2ccccc2)ccnc1Oc1ccccc1` showed a z-score of 0.317.
Next, `Cc1ccc(S(=O)(=O)N[C@H](C(=O)OCn2nnc3ccccc3c2=O)C(C)C)cc1`: -0.125.
As for `CSc1nc2ccc(S(=O)(=O)N3CCOCC3)cc2s1`, the figure is 0.172.
For `Cc1nc2nc(C)c(CCC(=O)NC(C)c3ccc4c(c3)OCCO4)c(C)n2n1` (stereo not drawn), the z-score is 0.0286.
Regarding `CCOC(=O)c1cc(-c2ccccc2)sc1NC(=O)c1cc(OC)c(OC)c(OC)c1`, the z-score was -0.109.
As for `O=c1c([N+](=O)[O-])c(NC2CCCCC2)c2ccccc2n1-c1ccccc1`, the figure is 0.168; as for `COc1ccccc1C1CC(c2ccc(C)cc2)Nc2ncnn21` (stereo not drawn), 0.264; as for `COc1cccc(NC(=S)NNC(=O)c2ccccc2OC(F)F)c1`, 0.361.
For the compound `CCc1ccc(NC(=O)c2ccc(Cn3cc([N+](=O)[O-])cn3)cc2)cc1`, the z-score was -0.168.
Next, `CC(C)(C)C(=O)NCCCc1ccccc1`: -0.0532.
`O=C(CCC1CC(=O)Nc2ccccc21)NCc1ccc(F)cc1` (stereo not drawn): the z-score was found to be 0.75.
Compound `Cc1cccc(NC(=O)CN2C(=O)NC(Cc3ccccc3)C2=O)c1` (stereo not drawn) displayed a z-score of 0.0974.
Compound `COc1ccc2c(c1)c(C(=O)CN1CCN(C(=O)c3ccco3)CC1)c(C)n2C` displayed a z-score of 0.531.
With `S=C(NCCC(c1ccccc1)c1ccccc1)Nc1ccc(Cl)cc1`, the z-score is -0.14.
As for `CCOC(=O)C1CCN(CC(=O)Nc2c(C(=O)OC)[nH]c3cccc(C)c23)CC1`, the figure is -0.691.
The compound `Cc1ccc(C2N(c3nccs3)C(=O)C3CCCN32)cc1` (stereo not drawn) displayed a z-score of -0.284.
`CS(=O)(=O)c1cnc2c(-c3ccc(F)cc3)cnn2c1N` had a z-score of -0.215.
As for `O=C(CN1CCN(Cc2cccc(Cl)c2)C1=O)NCC1CCCO1` (stereo not drawn), the figure is 0.107.
As for `CCOC(=O)c1cnc(-n2nc(C)cc2C)nc1NCCc1ccccc1`, the z-score is -0.487.
For the compound `Cc1ccc(S(=O)(=O)N(C)C2(C)CCS(=O)(=O)C2)cc1` (stereo not drawn), the z-score was -0.0524.
On to `COCCCNC(=O)/C(C#N)=c1\s/c(=C\c2ccccc2OC(F)F)c(=O)n1CCCOC`, for which the z-score is -0.207.
Take `c1ccc2c(c1)CC1(CCCCC1)n1nnnc1-2`: the z-score was -1.09.
The compound `COc1ccc(C)cc1NC(=O)COC(=O)C1CC1` returned a z-score of -0.0696.
On to `C=CCn1c(SCCOc2ccc(OC)cc2)nnc1C(CO)NC(=O)c1ccc(OC)cc1` (stereo not drawn), for which the z-score is -0.406.
Turning to `COc1ccc(C(NC(=O)C2CCCCC2)c2c(O)ccc3ccccc23)cc1` (stereo not drawn), the z-score is 0.484.
Next, `O=C(CN(C(=O)c1cccc([N+](=O)[O-])c1)C1CCCCC1)Nc1ccc(Cl)c([N+](=O)[O-])c1`: -0.137; `CCOc1cc(/C=N/NC(N)=O)ccc1OC(=O)c1ccc(C)cc1`: -0.24; `CC/C(O)=C(/C#N)c1nnc2n1CCCCC2`: -0.23.
